Source: the supplement of paper PMC4166925
± gives the standard deviation of the averaged measurements. In all, about 33,000 sequences were measured (“E-score (dimensionless, -0.5 to 0.5)”: median about -0.046, highest 2% from about 0.36 on). This is one part of the list.

Test system: T1, SpTbr T-box DNA-binding domain (GST fusion)
T1 sequence: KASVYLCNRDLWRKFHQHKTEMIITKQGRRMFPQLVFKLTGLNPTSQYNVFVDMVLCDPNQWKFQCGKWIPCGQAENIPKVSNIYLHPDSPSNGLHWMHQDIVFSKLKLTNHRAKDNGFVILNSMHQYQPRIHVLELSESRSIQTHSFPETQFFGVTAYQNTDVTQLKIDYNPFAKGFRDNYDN
Assay: PBM E-score of 8-mer (E-score (dimensionless, -0.5 to 0.5)); Tbr is Tbrain of the sea star Patiria miniata (Pm) or the sea urchin Strongylocentrotus purpuratus (Sp); higher = stronger binding preference; most listed sequences are background and not binding sites
Conditions: the construct has about 5 more residues each side
Method in brief: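 Using the Universal PBM Analysis Suite, every ungapped 8-mer received an enrichment E-score averaged over duplicate arrays. Probe intensities came from double-stranded Universal Agilent oligonucleotide arrays incubated with 200 nM GST-fused Tbr T-box DNA-binding domain in PBS (pH 7.5). That protein was expressed in BL21 E. coli at 20 °C and purified by glutathione affinity chromatography.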

Sequence | PBM E-score of 8-mer
GAGCTCGC | 0.032 ± 0.013
AAGGAAAA | -0.219 ± 0.11
CCAGTATC | -0.199 ± 0.063
AAGGCGGC | 0.0356 ± 0.024
AGGGCAAT | -0.199 ± 0.012
AACTTAAT | -0.0641 ± 0.021
ACATAGTA | -0.0478 ± 0.1
AACATATG | -0.0686 ± 0.032
AGGGTAAA | -0.167 ± 0.029
CCAATCAA | -0.131 ± 0.035
CTATGCGA | 0.124 ± 0.063
CCTTGAGA | -0.116 ± 0.016
ACCAGATC | 0.106 ± 0.018
CATGACCA | -0.2 ± 0.056
ATAATCAT | -0.085 ± 0.035
CCCGTGCG | -0.0818 ± 0.018
GGCTAGCA | 0.117 ± 0.015
ATCGAACG | -0.0106 ± 0.017
AAATATGA | -0.142 ± 0.076
ATGACGCC | 0.321 ± 0.0033
ACCTACCT | 0.0102 ± 0.051
ACATCTGC | -0.0696 ± 0.012

Sequence | PBM E-score of 8-mer
GGTGTCGA | 0.453 ± 0.015
CTGAGGAC | 0.0509 ± 0.03
AGAACAGG | -0.153 ± 0.039
CATAATCC | -0.186 ± 0.021
TTGTTAAA | 0.184 ± 0.12
GCGCAGTA | -0.0941 ± 0.029
GATCGTCC | -0.199 ± 0.011
ACTACGTC | -0.269 ± 0.059
CTTGCCCC | 0.0568 ± 0.059
ATATCTTC | -0.233 ± 0.09
GAATGGGA | -0.235 ± 0.021
CACGGTTC | 0.133 ± 0.0055
CCGAATTA | -0.278 ± 0.029
AAGCACCC | -0.0675 ± 0.042
AATCTGAG | 0.0009 ± 0.0013
CTTTAAAA | -0.135 ± 0.035
GTGCCCAA | -0.0375 ± 0.039
GAGTATAC | -0.177 ± 0.12
CAATACGA | -0.0472 ± 0.078
ACGGTCTG | -0.0305 ± 0.096
CAGCTACA | -0.037 ± 0.035
GCCTTGCC | -0.0967 ± 0.0056

Sequence | PBM E-score of 8-mer
GACTAAGC | -0.3743 ± 0.00026
CGTTAATA | 0.106 ± 0.073
ATTAAGTA | -0.133 ± 0.052
GGGACAAC | -0.12 ± 0.0092
CGGTTAGC | 0.142 ± 0.028
TATGACAA | 0.0285 ± 0.073
CAATCAGG | 0.0256 ± 0.12
GCCGGCCC | -0.26 ± 0.017
GACTGTCC | -0.0459 ± 0.057
CAAGCTTA | -0.145 ± 0.011
GGGAAAAC | 0.0572 ± 0.038
ACCATTCG | 0.221 ± 0.028
CGTAAGTC | -0.173 ± 0.094
ATTGCAAA | -0.0507 ± 0.054
ATTTGTTG | 0.13 ± 0.018
ACTAGTCT | -0.117 ± 0.068
AATGGAGA | -0.25 ± 0.0069
AGGCAAAG | -0.141 ± 0.077
CGGTAGGA | -0.16 ± 0.034
GACCCTGC | -0.0273 ± 0.057
AGGGATAA | -0.128 ± 0.035
GCCGCCGA | 0.0386 ± 0.066

Sequence | PBM E-score of 8-mer
ATTCACGA | 0.288 ± 0.047
GCACCGGC | -0.128 ± 0.053
TACAAGTA | -0.149 ± 0.015
ATCCTACG | -0.263 ± 0.039
CGTGCCGA | 0.0796 ± 0.033
AGGGCGTA | 0.0425 ± 0.019
ATCTACAT | -0.0423 ± 0.11
GGGTACGA | -0.0119 ± 0.011
CCCACTTC | 0.171 ± 0.018
ATATCCAG | -0.124 ± 0.032
ATAATCCA | -0.24 ± 0.06
ATAGGGAG | -0.00632 ± 0.036
CCGGTCGA | -0.12 ± 0.042
AAACATAA | -0.0335 ± 0.015
TAAACATA | -0.095 ± 0.0064
GATGTTCA | 0.154 ± 0.024
GACGGTCC | -0.137 ± 0.068
ACAAGTTG | 0.259 ± 0.015
AACAAACA | 0.0644 ± 0.059
AAATTTAG | -0.19 ± 0.0076
